# Measured values taken from the supplement of paper PMC10723795.
# Structures can show the parent of a compound that is named as a salt. The list shows a part of the results.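 The calls were made as follows: active = more than 2 SD below the DMSO mean: under 0.85 at 10 µM or 0.885 at 1 µM; inactive = the rest.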 Most values come without repeats; read them as rough.
# System: RPE1
# Experiment: nucleolar normality score relative to DMSO (fraction of DMSO control); RPE1 is a non-cancer human cell line; higher = more normal nucleoli (less nucleolar stress)
# Settings: 24 h
# 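Also: fixed cells immunolabelled for nucleolin and UBF, 40 image fields per well in 384-well plates, per-cell score = nucleolin nucleolar/nucleoplasm intensity ratio divided by the matching UBF ratio.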
Compound,nucleolar normality score (1 µM),nucleolar normality score (10 µM)
CC(C)(Oc1ccc(C2CC2(Cl)Cl)cc1)C(=O)O (stereo not given) [Ciprofibrate],inactive: 1.12,inactive: 1.17
c1ccc2c(-c3cnn4cc(-c5ccc(N6CCNCC6)cc5)cnc34)ccnc2c1,inactive: 1.09,inactive: 1.14
CC(C)C[C@H](NC(=O)c1cc2ccccc2s1)C(=O)N1CCN(C(=O)[C@H](CO)NS(=O)(=O)c2ccc(Cl)cc2Cl)CC1,inactive: 0.982,inactive: 0.982
O=C(Nc1ccc2c(O)cc(S(=O)(=O)O)cc2c1)Nc1ccc2c(O)cc(S(=O)(=O)O)cc2c1,active: 0.839,inactive: 0.958
COc1cc2c(cc1OC)CN(CCc1ccc(NC(=O)c3cccc4c(=O)c5cccc(OC)c5[nH]c34)cc1)CC2,inactive: 0.967,inactive: 0.96
CC[C@]1(O)C[C@@H]2CN(CCc3c([nH]c4ccccc34)[C@@](C(=O)OC)(c3cc4c(cc3OC)N(C)[C@H]3[C@@](O)(C(=O)OC)[C@H](OC(C)=O)[C@]5(CC)C=CCN6CC[C@]43[C@@H]65)C2)C1 [Vinblastine sulfate],inactive: 0.98,inactive: 1.1
O=C(O)c1ccc(N2C(=O)C(=Cc3ccc(-c4ccc([N+](=O)[O-])cc4)o3)C=C2c2ccccc2)cc1,inactive: 0.969,inactive: 1.04
Cc1cc(CS(=O)(=O)c2ccccc2)cc(OCc2ccc(CN3CCC[C@@H]3CO)cc2)c1,inactive: 0.947,inactive: 1.01
Cc1cc(N2CCOCC2)cc2[nH]c(-c3c(NCC(O)c4cccc(Cl)c4)cc[nH]c3=O)nc12 (stereo not given),active: 0.808,inactive: 0.964
Clc1ccc(COC(Cn2ccnc2)c2ccc(Cl)cc2Cl)cc1 (stereo not given) [Econazole],inactive: 1.01,inactive: 1.06
NC(=O)NO [Hydroxyurea],inactive: 0.974,inactive: 1.04
O=S(=O)(O)CCSSCCS(=O)(=O)O [Dimesna],inactive: 1,inactive: 1.06
C[C@@H]1CC[C@@]2(OC1)O[C@H]1C[C@H]3[C@@H]4CC=C5C[C@@H](O[C@@H]6O[C@H](CO)[C@@H](O)[C@H](O[C@@H]7O[C@H](CO)[C@@H](O)[C@H](O)[C@H]7O)[C@H]6O[C@@H]6O[C@@H](C)[C@H](O)[C@@H](O)[C@H]6O)CC[C@]5(C)[C@H]4CC[C@]3(C)[C@H]1[C@@H]2C [Gracillin],active: 0.385,active: 0.361
CO[C@H]1C(=O)[C@]2(C)[C@@H](OC)C[C@H]3OC[C@@]3(OC(C)=O)[C@H]2[C@H](OC(=O)c2ccccc2)[C@]2(O)C[C@H](OC(=O)[C@H](O)[C@@H](NC(=O)OC(C)(C)C)c3ccccc3)C(C)=C1C2(C)C [Cabazitaxel],active: 0.848,active: 0.764
CC(C)(C)c1ccc(S(=O)(=O)NCc2ccc(C(=O)Nc3cccnc3)cc2)cc1,inactive: 0.923,inactive: 1.01
Nc1nc(=O)c2c([nH]1)NCC(CNc1ccc(C(=O)N[C@@H](CCC(=O)O)C(=O)O)cc1)N2C=O (stereo not given in full) [Leucovorin Calcium Pentahydrate],inactive: 1.05,inactive: 1.13
Oc1c(Cl)cc(Cl)cc1Sc1cc(Cl)cc(Cl)c1O [Bithionol],inactive: 1.03,inactive: 1.1
Cc1cc(C)cc(NC(=O)Cc2ccc(OC(C)(C)C(=O)O)cc2)c1 [Efaproxiral Sodium],inactive: 0.984,inactive: 0.874
CCOc1ccc(Cc2cc([C@@H]3O[C@H](CO)[C@@H](O)[C@H](O)[C@H]3O)ccc2Cl)cc1 [Dapagliflozin],inactive: 0.996,inactive: 1.03
CN(C)CCN1C(=O)c2cccc3cc(N)cc(c23)C1=O [Amonafide],inactive: 0.964,inactive: 0.939
CC(C)NCCCn1c(Sc2cc3c(cc2I)OCO3)nc2c(N)ncnc21,inactive: 0.947,active: 0.673
Nc1ccn([C@@H]2O[C@H](CO)[C@@H](O)[C@H]2O)c(=O)n1 [Cytidine],inactive: 1.02,inactive: 1.03
C=CC(=O)N1CC[C@@H](Oc2nc(Nc3ccc(N4CCC(N5CCN(C)CC5)CC4)cc3)c(C(N)=O)nc2CC)C1 [Naquotinib(ASP8273)],inactive: 1.03,inactive: 1.04
COc1ccc(COc2cc3oc(=O)c4cc(C(C)O)ccc4c3cc2OC)cc1 (stereo not given) [Palomid 529 (P529)],inactive: 1.02,inactive: 1.07
c1ccc(Cn2c(-c3ccc(OCC(C4CCNCC4)n4c(-c5ccccc5)nc5ccccc54)cc3)nc3ccccc32)cc1 (stereo not given) [Deltarasin],active: 0.869,inactive: 0.87
CC[C@@H]1C(=O)N(C)c2cnc(Nc3ccc(C(=O)NC4CCN(C)CC4)cc3OC)nc2N1C1CCCC1,inactive: 1.04,inactive: 1.06
CN(CC(=O)N(Cc1ccc(C2CCCCC2)cc1)c1ccc(C(=O)NO)cc1)S(=O)(=O)c1c(F)c(F)c(F)c(F)c1F,inactive: 0.995,inactive: 1.03
"CO[C@H]1C[C@@H]2CC[C@@H](C)[C@@](O)(O2)C(=O)C(=O)N2CCCC[C@H]2C(=O)O[C@H]([C@H](C)C[C@@H]2CC[C@@H](OP(C)(C)=O)[C@H](OC)C2)CC(=O)[C@H](C)/C=C(\C)[C@@H](O)[C@@H](OC)C(=O)[C@H](C)C[C@H](C)/C=C/C=C/C=C/1C [Ridaforolimus (Deforolimus, MK-8669)]",active: 0.883,inactive: 0.88

Compound,nucleolar normality score (1 µM),nucleolar normality score (10 µM)
CCCCC[C@H](O)CC(=O)CCc1ccc(O)c(OC)c1 [6-Gingerol],inactive: 1.02,inactive: 0.919
Fc1ccc(CNc2ncnc3ccc(F)cc23)cc1 [Spautin-1],inactive: 1.03,inactive: 1.02
CCS(=O)(=O)N1CCC([C@@H](C)n2c(C)c(C(=O)NCc3c(OC)cc(C)[nH]c3=O)c3ccccc32)CC1,inactive: 0.902,inactive: 1.01
O=S(=O)(N=Cc1c(O)ccc2ccccc12)c1cccs1,inactive: 1.02,inactive: 1.09
CC12CCC(O)CC1=CCC1C2CCC2(C)C(C(O)CC(O)(C(F)(F)F)C(F)(F)F)CCC12 (stereo not given),inactive: 1.04,inactive: 1.1
CCCC(CCC)C(=O)O [Valproic acid sodium salt (Sodium valproate)],inactive: 0.981,inactive: 1.05
"CC[C@H](Nc1ncnc2[nH]cnc12)c1nc2cccc(F)c2c(=O)n1-c1ccccc1 [Idelalisib (CAL-101, GS-1101)]",inactive: 1.01,inactive: 1.04
CC[C@@H](N)CNc1ccnc(-c2cc(-c3cnn(C)c3)ccc2O)n1,inactive: 0.983,inactive: 0.972
O=CN1CC/C(=C/c2ccc3c(c2)OCO3)C1=O,inactive: 1,inactive: 1.1
O=C(NC1CCNCC1)c1n[nH]cc1NC(=O)c1c(Cl)cccc1Cl,inactive: 1.07,inactive: 1.07
O[C@@H](COc1cccc2ncccc12)CN1CCN(C2c3ccccc3[C@@H]3[C@H](c4ccccc42)C3(F)F)CC1 (stereo not given in full),inactive: 1.04,inactive: 1.11
NS(=O)(=O)NCCNc1nonc1/C(=N/O)Nc1ccc(F)c(Br)c1,active: 0.866,inactive: 0.891
CCC(=O)NCC[C@@H]1CCc2ccc3c(c21)CCO3 [Ramelteon],inactive: 1.05,inactive: 1.05
COC1(c2sc3c(N4CCOCC4)nc(-c4cnc(N)nc4)nc3c2C)COC1,inactive: 0.961,active: 0.771
CN1CCN(C(=O)C=Cc2ccc([N+](=O)[O-])o2)CC1,inactive: 0.983,inactive: 0.988
CC(C)C[C@H](NC(=O)CNC(=O)c1cc(Cl)ccc1Cl)B1OC(=O)CC(CC(=O)O)(C(=O)O)O1 (stereo not given in full) [Ixazomib Citrate (MLN9708)],inactive: 1.06,inactive: 0.906
COc1cc(C[C@H]2C(=O)OC[C@@H]2Cc2ccc(OC)c(OC)c2)ccc1O [(-)-Arctigenin],inactive: 1.1,inactive: 1.1
Cc1ccc(NC(=O)Nc2cc(C(F)(F)F)ccc2F)cc1Nc1ccc2c(c1)NC(=O)/C2=C\c1ccc[nH]1,inactive: 0.941,inactive: 1.01
CNC(=O)c1ccccc1Sc1ccc2c(/C=C/c3ccccn3)n[nH]c2c1 [Axitinib],inactive: 1.04,inactive: 1.21
C[C@H]1CNC(=O)c2cnn3ccc(nc23)N[C@H](C)c2cc(F)ccc2O1,inactive: 1.02,inactive: 1.03
CCOc1cc(N2CCC(O)CC2)ccc1Nc1ncc2c(n1)N(C)c1ccccc1C(=O)N2C,inactive: 1.02,inactive: 1.01
O=C1c2ccccc2-c2n[nH]c3cccc1c23,inactive: 1.07,inactive: 1.11
O=C(c1ccc(OCCN2CCCCC2)cc1)c1c(-c2ccc(O)cc2)sc2cc(O)ccc12 [Raloxifene HCl],inactive: 1.01,inactive: 1.09
CNC(=O)c1ccc(N2C(=S)N(c3cnc(C#N)c(C(F)(F)F)c3)C(=O)C23CCC3)cc1F,inactive: 1.04,inactive: 0.907
CO[C@H]1CC[C@H](N2C(=O)CNc3ncc(-c4ccc(C(C)(C)O)nc4)nc32)CC1,inactive: 1.05,inactive: 0.996
CN1CCN(c2ccc(C(=O)Nc3n[nH]c4ccc(Cc5cc(F)cc(F)c5)cc34)c(NC3CCOCC3)c2)CC1 [Entrectinib (RXDX-101)],inactive: 0.974,inactive: 1.06
O=C(Nc1cccc(Cl)c1)Nc1ncc(CCNc2ncnc3ccsc23)s1,inactive: 0.951,inactive: 0.979
